Measured values from the supplement of paper PMC10126150.
Values marked as one replicate rest on one cluster of the flow cell; about a third of the high ones do not repeat.
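Note: ATP exposure 15 min at 22 °C before imaging.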

These sequences were tested on ATP (assay: switch fluorescence ratio, 500 uM ATP over buffer (Cy3 cluster intensity, sum of 5 cycles each) (fold (ratio)); higher = stronger signal-on switching upon ATP binding; sequences stand for … in TCGTCGGCAGCGTCAGATGTGTATAAGAGACAGTTTTTTTTTTTTTTTTTTTTTTTTT…TC). Details: aptamer strand: ATP DNA aptamer (quencher-CACCTGGGGGAGTATTGCGGAGGAAGG + anchor), 100 nM annealed; ATP concentration: 500 uM; one replicate.
Procedure, shortened: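 Per cluster, summed Cy3 intensity from the target cycles was divided by that from the buffer cycles to give the fluorescence ratio, then averaged per switch-domain sequence. Clusters outside 100-1000 RFU were excluded. The Cy3-labelled switching-strand clusters, on a modified Illumina MiSeq flow-cell, were annealed to 100 nM quencher-labelled ATP aptamer and imaged in selection buffer, then after 15 min with 500 uM ATP at 22 °C, for five cycles with NaOH stripping and re-annealing between them.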
AGCCGTAACA showed a switch fluorescence ratio of 0.992. AGCCGTAAGC gave a switch fluorescence ratio of 1.05. With AGCCGTCGGA the switch fluorescence ratio was 1. For AGCCTACGAC, the switch fluorescence ratio was 1.45. With AGCCTCGGGG the switch fluorescence ratio was 0.947. Work on AGCCTGGCCG yielded a switch fluorescence ratio of 1.02. Sequence AGCCTGTCCT has a switch fluorescence ratio of 1.04. Sequence AGCCTGTGAC has a switch fluorescence ratio of 1. With AGCCTGTTGT the switch fluorescence ratio was 0.962. With AGCCTTGCCC the switch fluorescence ratio was 0.969. For AGCCTTTCAG, the switch fluorescence ratio was 0.99. In the case of AGCGAACACG, the switch fluorescence ratio is reported as 1.08. In the case of AGCGAACCGC, the switch fluorescence ratio is reported as 0.99. For AGCGAAGTGG, the switch fluorescence ratio was 1.08. Work on AGCGAATCTA yielded a switch fluorescence ratio of 1.02. For AGCGACAGGG, the switch fluorescence ratio was 1.06. Work on AGCGACTTTT yielded a switch fluorescence ratio of 0.998. In the case of AGCGAGCAGG, the switch fluorescence ratio is reported as 1.14. Sequence AGCGAGCGCT has a switch fluorescence ratio of 0.976. AGCGAGCGTT gave a switch fluorescence ratio of 1.02. With AGCGAGGGCT the switch fluorescence ratio was 1.01. Work on AGCGATGGGG yielded a switch fluorescence ratio of 1.05. Sequence AGCGCAGGTG has a switch fluorescence ratio of 4.27. Sequence AGCGCATACA has a switch fluorescence ratio of 1.5. In the case of AGCGCATAT, the switch fluorescence ratio is reported as 1.36. In the case of AGCGCATTCG, the switch fluorescence ratio is reported as 1.04. With AGCGCCTGTG the switch fluorescence ratio was 0.965. In the case of AGCGCGTGTC, the switch fluorescence ratio is reported as 0.974. With AGCGCTTTAC the switch fluorescence ratio was 2.63. In the case of AGCGGATAGG, the switch fluorescence ratio is reported as 1.06. In the case of AGCGGGGGA, the switch fluorescence ratio is reported as 0.995. AGCGGTGACA showed a switch fluorescence ratio of 0.987. AGCGTAAGTT was tested, and the switch fluorescence ratio was 0.992. Work on AGCGTAGGTG yielded a switch fluorescence ratio of 1.03. Sequence AGCGTATCGT has a switch fluorescence ratio of 0.975. In the case of AGCGTCACGC, the switch fluorescence ratio is reported as 1.01. AGCGTCGATG gave a switch fluorescence ratio of 1.04. Work on AGCGTCTACA yielded a switch fluorescence ratio of 0.993. For AGCGTCTCAA, the switch fluorescence ratio was 1.01. Work on AGCGTGCAAC yielded a switch fluorescence ratio of 0.999. Sequence AGCGTGGGAG has a switch fluorescence ratio of 1.03. Work on AGCGTGGTGT yielded a switch fluorescence ratio of 1.02. Work on AGCGTGTTTC yielded a switch fluorescence ratio of 1.02. For AGCGTGTTTG, the switch fluorescence ratio was 1.02. Work on AGCGTTCCCG yielded a switch fluorescence ratio of 0.977. Sequence AGCGTTGCAC has a switch fluorescence ratio of 0.99. Work on AGCGTTGTAG yielded a switch fluorescence ratio of 1.03. Sequence AGCGTTTTTC has a switch fluorescence ratio of 1.02. For AGCTAGTTTG, the switch fluorescence ratio was 0.982. Sequence AGCTATAAAA has a switch fluorescence ratio of 1.07. With AGCTATGCGT the switch fluorescence ratio was 1.01. Work on AGCTCGTTGA yielded a switch fluorescence ratio of 0.982. AGCTCTAAG was tested, and the switch fluorescence ratio was 0.971. AGCTCTGAAC was tested, and the switch fluorescence ratio was 1.04. In the case of AGCTCTGTGG, the switch fluorescence ratio is reported as 0.944. In the case of AGCTCTTTGC, the switch fluorescence ratio is reported as 1.01. AGCTGAAAAT showed a switch fluorescence ratio of 1.02. AGCTGACGGC was tested, and the switch fluorescence ratio was 1.02. For AGCTGCACA, the switch fluorescence ratio was 1.06. With AGCTGGATTC the switch fluorescence ratio was 1.01. Work on AGCTGGGAGC yielded a switch fluorescence ratio of 1.04. With AGCTGGGCTT the switch fluorescence ratio was 0.949. AGCTGGTCAG showed a switch fluorescence ratio of 1.01. AGCTGGTGT was tested, and the switch fluorescence ratio was 1.06. AGCTGTCGG gave a switch fluorescence ratio of 0.984. Work on AGGAAAGGCC yielded a switch fluorescence ratio of 0.984. AGGAAAGGTC showed a switch fluorescence ratio of 0.97. AGGAAATCTG showed a switch fluorescence ratio of 0.987. AGGAACGAAA gave a switch fluorescence ratio of 0.976. In the case of AGGAACTTTG, the switch fluorescence ratio is reported as 0.979. AGGAAGACGC gave a switch fluorescence ratio of 1.03. Work on AGGAAGAGCA yielded a switch fluorescence ratio of 1.04. Sequence AGGAAGGCGT has a switch fluorescence ratio of 0.983. AGGAATAAAT showed a switch fluorescence ratio of 0.988. Sequence AGGAATAGGC has a switch fluorescence ratio of 1.04. In the case of AGGAATCAGC, the switch fluorescence ratio is reported as 1. AGGAATCAGG gave a switch fluorescence ratio of 1.04. Sequence AGGAATCTCT has a switch fluorescence ratio of 0.967. AGGAATTGG was tested, and the switch fluorescence ratio was 1.02. AGGAATTTAA gave a switch fluorescence ratio of 1.02. Work on AGGACATCAA yielded a switch fluorescence ratio of 1.03. AGGACTACGT was tested, and the switch fluorescence ratio was 0.995. With AGGAGACTC the switch fluorescence ratio was 1.06. For AGGAGACTTT, the switch fluorescence ratio was 0.989. With AGGAGCGCCG the switch fluorescence ratio was 0.944. With AGGAGCTTGG the switch fluorescence ratio was 1.01. Work on AGGAGCTTGT yielded a switch fluorescence ratio of 0.991. AGGAGGTGAC gave a switch fluorescence ratio of 0.909. With AGGAGGTTTT the switch fluorescence ratio was 1.02. Work on AGGAGTCTAA yielded a switch fluorescence ratio of 1.01. Work on AGGAGTTAGC yielded a switch fluorescence ratio of 0.968. In the case of AGGATAATTT, the switch fluorescence ratio is reported as 1.01. AGGATAGCCC showed a switch fluorescence ratio of 0.996. For AGGATATTAA, the switch fluorescence ratio was 1. In the case of AGGATCCGAC, the switch fluorescence ratio is reported as 1.02. AGGATGTGAT showed a switch fluorescence ratio of 0.968. Sequence AGGATTTACA has a switch fluorescence ratio of 0.971. In the case of AGGCAACAGA, the switch fluorescence ratio is reported as 1.04. AGGCAATCAC gave a switch fluorescence ratio of 3.59. In the case of AGGCAGACAG, the switch fluorescence ratio is reported as 1.01. AGGCAGAGCG gave a switch fluorescence ratio of 0.96. Work on AGGCAGAGGC yielded a switch fluorescence ratio of 0.946. For AGGCAGATCA, the switch fluorescence ratio was 1.01. With AGGCATTATG the switch fluorescence ratio was 1.05. AGGCCACTCC was tested, and the switch fluorescence ratio was 1.11. Sequence AGGCCAGTTC has a switch fluorescence ratio of 1.01. With AGGCCCACGT the switch fluorescence ratio was 1.01. For AGGCCCAGGC, the switch fluorescence ratio was 1.08. With AGGCCGCTTG the switch fluorescence ratio was 1.04. In the case of AGGCCGGATC, the switch fluorescence ratio is reported as 1.03. In the case of AGGCCTCTTA, the switch fluorescence ratio is reported as 1.01. With AGGCGACGCA the switch fluorescence ratio was 1.07. With AGGCGACGCC the switch fluorescence ratio was 0.977. AGGCGAGAAC gave a switch fluorescence ratio of 1.06. Sequence AGGCGAGATT has a switch fluorescence ratio of 0.965. In the case of AGGCGCAATG, the switch fluorescence ratio is reported as 2.09. For AGGCGCGCTC, the switch fluorescence ratio was 1. In the case of AGGCGCGTTT, the switch fluorescence ratio is reported as 0.998. Work on AGGCGCTTTC yielded a switch fluorescence ratio of 1.4. With AGGCGTATCC the switch fluorescence ratio was 0.993. Work on AGGCGTTGA yielded a switch fluorescence ratio of 1.01. AGGCTACCTG gave a switch fluorescence ratio of 1.05. In the case of AGGCTCAAA, the switch fluorescence ratio is reported as 0.983. AGGCTCAAAT gave a switch fluorescence ratio of 1. In the case of AGGCTGATTG, the switch fluorescence ratio is reported as 0.937. AGGCTTATTG was tested, and the switch fluorescence ratio was 0.95. Sequence AGGCTTGTCG has a switch fluorescence ratio of 1.03. In the case of AGGCTTTGAG, the switch fluorescence ratio is reported as 0.949. AGGGAAAAGC was tested, and the switch fluorescence ratio was 1.17. For AGGGAAAGTA, the switch fluorescence ratio was 1.01. In the case of AGGGAAGCAT, the switch fluorescence ratio is reported as 1.11. Sequence AGGGAAGCCA has a switch fluorescence ratio of 0.999. AGGGAATCAC gave a switch fluorescence ratio of 1.06. With AGGGACAATG the switch fluorescence ratio was 1.04. Work on AGGGACTG yielded a switch fluorescence ratio of 1.03. For AGGGATAAC, the switch fluorescence ratio was 0.969. With AGGGATCGCA the switch fluorescence ratio was 1.03. In the case of AGGGCACTTG, the switch fluorescence ratio is reported as 1.01. AGGGCATCAT gave a switch fluorescence ratio of 0.969. With AGGGCCAGGC the switch fluorescence ratio was 1.01. For AGGGCCCCTT, the switch fluorescence ratio was 0.924. AGGGCCGACA gave a switch fluorescence ratio of 0.999. AGGGCCTGCG showed a switch fluorescence ratio of 0.959. For AGGGCCTTCT, the switch fluorescence ratio was 1. Sequence AGGGCCTTTT has a switch fluorescence ratio of 1.1. AGGGCGGGAG showed a switch fluorescence ratio of 0.989. For AGGGCGTATA, the switch fluorescence ratio was 0.985. With AGGGCTACCT the switch fluorescence ratio was 1.03. AGGGCTCTGG showed a switch fluorescence ratio of 1.04. AGGGCTGAGA was tested, and the switch fluorescence ratio was 0.963. In the case of AGGGCTGG, the switch fluorescence ratio is reported as 0.948. AGGGCTTGGG gave a switch fluorescence ratio of 0.964. For AGGGGACAAC, the switch fluorescence ratio was 0.984. In the case of AGGGGACCTG, the switch fluorescence ratio is reported as 0.988. With AGGGGACTCG the switch fluorescence ratio was 0.958. Sequence AGGGGATTAA has a switch fluorescence ratio of 1.22. Work on AGGGGCAAAA yielded a switch fluorescence ratio of 1.01. For AGGGGCACTT, the switch fluorescence ratio was 1.01. Sequence AGGGGCTTA has a switch fluorescence ratio of 0.987. For AGGGGGGCAT, the switch fluorescence ratio was 1.02. Work on AGGGGTCTT yielded a switch fluorescence ratio of 1. AGGGGTGTAA gave a switch fluorescence ratio of 1.02. Work on AGGGGTTCTT yielded a switch fluorescence ratio of 0.943. In the case of AGGGTAAAAC, the switch fluorescence ratio is reported as 1.04. AGGGTAAGAA was tested, and the switch fluorescence ratio was 1.1. AGGGTAATGA was tested, and the switch fluorescence ratio was 1. AGGGTCACTG was tested, and the switch fluorescence ratio was 1.02. AGGGTGATG was tested, and the switch fluorescence ratio was 0.983. AGGGTGTCTA was tested, and the switch fluorescence ratio was 1.01. With AGGGTTCATA the switch fluorescence ratio was 1.03. With AGGGTTTCGT the switch fluorescence ratio was 0.991. AGGTAAAAGT showed a switch fluorescence ratio of 0.975. Sequence AGGTAACATC has a switch fluorescence ratio of 0.989. AGGTACGGTG showed a switch fluorescence ratio of 1.06. For AGGTACGTGC, the switch fluorescence ratio was 0.99. Work on AGGTATAGGT yielded a switch fluorescence ratio of 0.951. AGGTATCAT gave a switch fluorescence ratio of 1.01. For AGGTATTTGG, the switch fluorescence ratio was 1.01. AGGTCAATA was tested, and the switch fluorescence ratio was 0.968. AGGTCAGGGA showed a switch fluorescence ratio of 1.04. AGGTCCGTGG was tested, and the switch fluorescence ratio was 1.03. AGGTCCGTTT showed a switch fluorescence ratio of 1.01. AGGTCCTGGT showed a switch fluorescence ratio of 0.981. Sequence AGGTCGAGAC has a switch fluorescence ratio of 0.974. Sequence AGGTCGCACG has a switch fluorescence ratio of 1.02. AGGTGAAGCT gave a switch fluorescence ratio of 1.07. Work on AGGTGACAAT yielded a switch fluorescence ratio of 0.995. For AGGTGACCAC, the switch fluorescence ratio was 1.04. AGGTGAGACT gave a switch fluorescence ratio of 1.03. For AGGTGCAGGG, the switch fluorescence ratio was 0.956. In the case of AGGTGGAGAT, the switch fluorescence ratio is reported as 0.98. AGGTGGATTG showed a switch fluorescence ratio of 0.965. AGGTGGGCAT showed a switch fluorescence ratio of 1. In the case of AGGTGTAGTA, the switch fluorescence ratio is reported as 1. Work on AGGTGTCACT yielded a switch fluorescence ratio of 0.976. AGGTGTGGTA gave a switch fluorescence ratio of 0.995. In the case of AGGTGTTT, the switch fluorescence ratio is reported as 1.06. AGGTTAAAAA gave a switch fluorescence ratio of 1.05. Sequence AGGTTACCC has a switch fluorescence ratio of 1.03. For AGGTTATCGC, the switch fluorescence ratio was 1. AGGTTATTTA gave a switch fluorescence ratio of 0.973.
